Assay results taken from US9745597B2, “Compositions and methods for controlling fungal and bacterial diseases in plants” (priority 2014, dated 2017).

Tests used:
[1] = system: Pseudomonas syringae pv. tomato; assay: In vitro control of Pseudomonas syringae pv. tomato, OD600 in 96-well plates (Example 26); assay type: cell-based; details: bacterial growth by OD600, mixture = 95% cell-free whole broth + 5% adjuvant
Description: A whole broth culture of Bacillus subtilis QST713 was prepared in a soy-based medium. Bacillus subtilis cells were removed from the whole broth culture by centrifugation. […] After several hours, the OD600 in each well was measured and compared to the initial OD600 to determine the relative bacterial growth compared to that of the bacterial suspension in the untreated well.

Alternaria solani = assay: In vivo preventive test on Alternaria (tomatoes), equilibrated mixtures (Example 18); details: rate 0.12%; 3 days after inoculation
Uromyces appendiculatus = assay: Field trials with dry beans inoculated with Uromyces appendiculatus (Example 5); details: dosage 0.3%; 5 applications; 20 days after final application
Description: Two field trials were conducted with dry beans that were artificially inoculated with Uromyces appendiculatus. 5 treatments and 2 inoculations were done between July 1 and July 22 at a growth stage of BBCH29 to BBCH63 in 5 to 6 days interval as outlined in Table 12. The percent disease control shown in Table 11 is the result of the last evaluation made 20 days after the final application, done by visual observation of disease symptoms. 0% means an efficacy which corresponds to that of the untreated control while an efficacy of 100% means that no disease was observed.

Phakopsora pachyrhizi = assay: Asian soybean rust bioassay (Example 2); details: GENAPOL LRO 3000 ppm
Description: (§1) The present study investigated the efficacy against a variety of plant pathogens of the commercial product, […]® ASO (Bacillus subtilis QST713 fermentation product), with and without GENAPOL® LRO (sodium C12/C14-fatty alcohol diglycol ether sulfate). The application rates of […]® ASO refer to the amount of (1.67%) Bacillus subtilis QST713 contained in the product […]® ASO.
(§2) ® ASO was diluted in water to concentrations of 1000 ppm, 500 ppm, 250 ppm, and 125 ppm and applied to plants with or without GENAPOL® LRO applied at a concentration of 3000 ppm. Subsequently, the plants were inoculated with the various plant pathogens and scored for percent disease control with the following eight plant pathogen bioassays: (1) tomato late blight, Phytophthora infestans (“Late Blight”); (2) grape downy mildew, Plasmopara viticola (“Downy Mildew”); (3) cucumber powdery mildew, Sphaerotheca fuliginea (“Powdery Mildew”); (4) apple scab, Venturia inaequalis (“Scab”); (5) tomato early blight, Alternaria solani (“Early Blight”); (6) brown rust of snap bean, Uromyces appendiculatus (“Bean Rust”); (7) Asian soybean rust, Phakopsora pachyrhizi (“Soy Rust”); and (8) Botrytis grey mould on snap beans, Botrytis cinerea (“Grey Mould”).

Botrytis cinerea [2] = assay: Effect of equilibration of adjuvant mixtures on in vivo control of Botrytis cinerea (Example 32); details: average of three measurements
Description: The mixture was diluted in DI water and applied to plants as soon as possible afterwards (“T=0” treatment) or allowed to equilibrate for 24 hours prior to dilution in DI water and application to plants (“T=24” treatment). […] The preparation of the third treatment is similar to that of tank mixes of adjuvants and antifungal agents commonly used by growers. […] The treatments were applied to plants and allowed to dry.

Venturia inaequalis [3] = assay: Field trial with apple trees infected with Venturia inaequalis (Example 4); assay type: in vivo; details: dosage 0.3%; 10 applications; 11 days after final application
Description: A field trial was conducted with apple trees that were naturally infected with the causal agent of scab, Venturia inaequalis. 10 treatments with an application volume of 1000 L/ha at 2 m cph were done between April 23 and June 30 at a growth stage of BBCH62 to BBCH77 in 5 to 11 days interval as outlined in Table 10.

Venturia inaequalis [4] = assay: In vivo preventive test on Venturia (apples), equilibrated mixtures (Example 17); details: 10 days after inoculation
Botrytis cinerea [5] = assay: In vivo preventive test on Botrytis (beans) (Example 14); details: rate 0.3%; lesion size 3 days after inoculation
Description: […]® ASO (Bacillus subtilis QST713 fermentation product) and the adjuvants AGNIQUE® PG8107G (C8-10 alkyl polyglycoside), GENAPOL® LRO (sodium C12/C14-fatty alcohol diglycol ether sulfate), SC-TankMix (rapeseed oil methyl ester; castor oil ethoxylated) or MERO® (rapeseed oil methyl ester) were diluted in water to the desired concentrations and applied separately and in combination to young bean plants. After the spray coating had dried on, 2 small pieces of agar covered with growth of Botrytis cinerea were placed on each leaf. The inoculated plants were placed in a darkened chamber at 14° C. and a relative atmospheric humidity of 100%. 3 days after the inoculation, the size of the lesions on the leaves was evaluated. 0% means an efficacy which corresponds to that of the untreated control, while an efficacy of 100% means that no disease is observed.

Sphaerotheca fuliginea = assay: Cucumber powdery mildew bioassay (Example 2); details: GENAPOL LRO 3000 ppm
Description: as §1, §2

Venturia inaequalis [6] = assay: Apple scab bioassay (Example 2)
Description: as §1, §2

Botrytis cinerea [7] = assay: In vivo preventive test of Bacillus products on Botrytis (pepper) (Example 33)
Description: Several commercially available Bacillus products formulated as wettable powders (WP) were mixed with GENAPOL® LRO (sodium C12/C14-fatty alcohol diglycol ether sulfate). The Bacillus products included […]® MAX (Bacillus subtilis QST713), DOUBLE NICKEL55™ (Bacillus amyloliquefaciens strain D747), SUBTILEX® (Bacillus subtilis MBI600), and TAEGRO® (Bacillus subtilis var. amyloliquefaciens FZB24).
The treatments were prepared by mixing 20% Bacillus product (WP) with 5% GENAPOL® LRO (sodium C12/C14-fatty alcohol diglycol ether sulfate) and diluting the mixture in DI water. Control treatments included 20% Bacillus product (WP) without GENAPOL® LRO (sodium C12/C14-fatty alcohol diglycol ether sulfate) in DI water and 5% GENAPOL® LRO (sodium C12/C14-fatty alcohol diglycol ether sulfate) in DI water.
The concentrations indicated in the table represent dilution of the 5% GENAPOL® LRO, 20% Bacillus product (WP), or 20% Bacillus product (WP)+5% GENAPOL® LRO to the percentages (v/v) shown. The treatments were applied to pepper plants and allowed to dry. The next day, the pepper plants were inoculated with a suspension of Botrytis cinerea. After disease was evident in the untreated controls the plants were evaluated for efficacy of disease control. Each efficacy value represents the average of three measurements. 0% means an efficacy which corresponds to that of the untreated control, while an efficacy of 100% means that no disease is observed.

For “sodium C12/C14-fatty alcohol diglycol ether sulfate [GENAPOL ® LRO]”, which “Efficacy in % Found” value ([1]; rate 0.11%) is on record?
The value was 25%.

What about the “Efficacy in % Found” value ([1]; rate 0.22%) of the same substance?
The value was 25%.

What about the “Efficacy in % Found” value (Alternaria solani) of the same substance?
Its value is 27%.

And the “Disease Control [%] Mean of 2 Trials Found” value (Uromyces appendiculatus)?
The value was 5%.

And the “Percent Disease Control Soy Rust” value (Phakopsora pachyrhizi)?
The value was 30%.

What about the Efficacy in % (Botrytis cinerea [2]; rate 0.50% v/v) of the same substance?
Its Efficacy in % is 0%.

And the Efficacy in % (Botrytis cinerea [2]; rate 1% v/v)?
The Efficacy in % was 0%.

What about the Efficacy in % (Botrytis cinerea [2]; rate 2% v/v) of the same substance?
Its Efficacy in % is 0%.

And the Efficacy in % (Botrytis cinerea [2]; rate 4% v/v)?
Its Efficacy in % is 30%.

What about the Efficacy in % (Botrytis cinerea [2]; rate 8% v/v) of the same substance?
Its Efficacy in % is 50%.

What about the “Disease Control [%] Found” value (Venturia inaequalis [3]) of the same substance?
Its value is 11%.

What about the “Efficacy in % Found” value (Venturia inaequalis [4]; rate 0.03%) of the same substance?
The value was 33%.

What about the “Efficacy in % Found” value (Venturia inaequalis [4]; rate 0.06%) of the same substance?
Its value is 53%.

What about the “Efficacy in % Found” value (Botrytis cinerea [5]) of the same substance?
Its value is 23%.

And the “Percent Disease Control Powdery Mildew” value (Sphaerotheca fuliginea)?
Its value is 20%.

What about the “Percent Disease Control Scab” value (Venturia inaequalis [6]; GENAPOL LRO 3000 ppm) of the same substance?
The value was 84%.

What about the “Efficacy in % Found” value (Venturia inaequalis [6]; Scab, rate 3000 ppm) of the same substance?
The value was 84%.

What about the “Efficacy in % Found” value (Botrytis cinerea [7]; rate 1% (v/v dilution of 5% GENAPOL LRO or 20% Bacillus product WP)) of the same substance?
The value was 10%.

What about the “Efficacy in % Found” value (Botrytis cinerea [7]; rate 2% (v/v dilution of 5% GENAPOL LRO or 20% Bacillus product WP)) of the same substance?
The value was 24%.

What about the “Efficacy in % Found” value (Botrytis cinerea [7]; rate 4% (v/v dilution of 5% GENAPOL LRO or 20% Bacillus product WP)) of the same substance?
Its value is 69%.
